To fix the notation:
B1: PhoQ; a variant is named by its letters at X, in order, P23837 (parent)
chain: MKKLLRLFFPLSLRVRFLLATAAVVLVLSLAYGMVALIGYSVSFDKTTFRLLRGESNLFYTLAKWENNKLHVELPENIDKQSPTMTLIYDENGQLLWAQRDVPWLMKMIQPDWLKSNGFHEIEADVNDTSLLLSGDHSIQQQLQEVREDDDDAEMTHSVAVNVYPATSRMPKLTIVVVDTIPVELKSSYMVWSWFIYVLSANLLLVIPLLWVAAWWSLRPIEALAKEVRELEEHNRELLNPATTRELTSLVRNLNRLLKSERERYDKYRTTLTDLTHSLKTPLXXLQXXLRSLRSEKMSVSDAEPVMLEQISRISQQIGYYLHRASMRGGTLLSRELHPVAPLLDNLTSALNKVYQRKGVNISLDISPEISFVGEQNDFVEVMGNVLDNACKYCLEFVEISARQTDEHLYIVVEDDGPGIPLSKREVIFDRGQRVDTLRPGQGVGLAVAREITEQYEGKIVAGESMLGGARMEVIFGRQHSAPKDE

The other results are listed elsewhere or left out.

Variants of B1 are the subject of the test. Kind of test: enrichment ratio after two sorts for PhoP signalling (ratio (wild type AVST 3.29)); higher = more functional. Particulars: with PhoP (E. coli).
For the variant LQLL, the enrichment ratio was at most 0.25.
With EALH, the enrichment ratio was at most 0.25.
On to PHMN, for which the enrichment ratio was at most 0.25.
The same measure for YTSP: at most 0.25; for SGDV: at most 0.25; for KVQP: at most 0.25.
The same measure for SCYM: 0.298; for CSRS: at most 0.25; for WLLF: at most 0.25.
For FSFQ, the enrichment ratio is at most 0.25.
In the case of FAEP, the enrichment ratio was at most 0.25.
The same measure for HDEV: at most 0.25.
As to TTVS, the enrichment ratio was determined as 2.04.
The same measure for LPTN: at most 0.25; for ELDC: at most 0.25.
The same measure for KRRA: at most 0.25; for SGNG: at most 0.25; for LTTI: at most 0.25.
For the variant LWGK, the enrichment ratio was at most 0.25.
The same measure for DWYL: at most 0.25; for PRAI: at most 0.25.
In the case of LLFY it was at most 0.25.
WALT: the enrichment ratio was at most 0.25.
The same measure for WDIF: at most 0.25; for NMSH: at most 0.25; for MQTG: at most 0.25.
In the case of RHPQ, the enrichment ratio is at most 0.25.
In the case of QIFA it was at most 0.25; in that of SKHI, 1.15; in that of FCYS, at most 0.25.
As to HPNN, the enrichment ratio was at most 0.25.
In the case of APDY, the enrichment ratio was at most 0.25.
GPRK: the enrichment ratio is at most 0.25.
As for TTGC, the enrichment ratio was determined as 8.48.
The same measure for NCMA: at most 0.25.
The same measure for LDKH: at most 0.25.
The same measure for QDRE: at most 0.25.
On to NQNA, for which the enrichment ratio is at most 0.25.
In the case of IYPP it was at most 0.25; in that of FFYL, at most 0.25; in that of IHRN, at most 0.25.
In the case of WEYY, the enrichment ratio was at most 0.25.
Turning to QNCK, the enrichment ratio was at most 0.25.
For FHEV, the enrichment ratio was at most 0.25.
Consider AHKD, for which the enrichment ratio was at most 0.25.
On to KGCF, for which the enrichment ratio was at most 0.25.
The same measure for WRKT: at most 0.25.
In the case of WFSV it was at most 0.25; in that of YHDW, at most 0.25.
In the case of TAEC it was at most 0.25; in that of IVKS, at most 0.25; in that of TFQA, 1.16.
Take YFPG: the enrichment ratio is at most 0.25.
As to INSE, the enrichment ratio was at most 0.25.
In the case of LGDC, the enrichment ratio is at most 0.25.
On to TMSW, for which the enrichment ratio is at most 0.25.
As for QDDF, the enrichment ratio was at most 0.25.
Turning to VTFN, the enrichment ratio is at most 0.25.
Regarding SEKR, the enrichment ratio is at most 0.25.
The same measure for RHSL: at most 0.25; for YDHE: at most 0.25; for ETRF: at most 0.25.
Take MYRN: the enrichment ratio is at most 0.25.
Take IADT: the enrichment ratio is at most 0.25.
With HHRD, the enrichment ratio was at most 0.25.
The same measure for QAVF: at most 0.25; for WNWG: at most 0.25; for FGAF: at most 0.25.
The same measure for FGQK: at most 0.25; for SLPR: 0.289.
As for RYHE, the enrichment ratio is at most 0.25.
In the case of FHSY it was at most 0.25; in that of APLC, at most 0.25.
In the case of RCAF it was at most 0.25.
The same measure for GHHF: at most 0.25; for WPYM: at most 0.25; for YMDA: at most 0.25.
As for VDQI, the enrichment ratio was at most 0.25.
On to PNGV, for which the enrichment ratio was at most 0.25.
Consider VSYW, for which the enrichment ratio is at most 0.25.
As to FWPL, the enrichment ratio was at most 0.25.
As for TRGK, the enrichment ratio is at most 0.25.
With HQPM, the enrichment ratio is at most 0.25.
Take VCYH: the enrichment ratio is at most 0.25.
Regarding QYTD, the enrichment ratio was at most 0.25.
The same measure for KQES: at most 0.25.
For LSVN, the enrichment ratio is at most 0.25.
In the case of YPEM it was at most 0.25.
In the case of RDWS it was at most 0.25; in that of GMVP, at most 0.25.
In the case of ILMH it was at most 0.25; in that of DRRR, at most 0.25; in that of STCE, 13.1.
Regarding PFPE, the enrichment ratio is at most 0.25.
In the case of NIVK it was at most 0.25.
In the case of YAIA it was at most 0.25; in that of GHYE, at most 0.25.
In the case of LEKS it was at most 0.25; in that of AYKQ, at most 0.25; in that of SWDI, at most 0.25.
Regarding RLNH, the enrichment ratio is at most 0.25.
Turning to WLFP, the enrichment ratio is at most 0.25.
In the case of DNFN it was at most 0.25.
With IMYF, the enrichment ratio was at most 0.25.
The same measure for QLIV: at most 0.25; for RVHK: at most 0.25.
The same measure for MGCM: 4.9; for MESV: 24.5.
On to RSPL, for which the enrichment ratio is at most 0.25.
In the case of KMGQ it was at most 0.25; in that of ADFK, at most 0.25; in that of EPGD, at most 0.25.
The same measure for FSNR: at most 0.25; for NETG: at most 0.25; for VECF: at most 0.25.
As to VIIQ, the enrichment ratio is at most 0.25.
In the case of GFWY it was at most 0.25.
For the variant YLAG, the enrichment ratio was at most 0.25.
On to SEIL, for which the enrichment ratio amounted to 10.1.
The same measure for SNWY: at most 0.25; for YGWN: at most 0.25.
Regarding VCIG, the enrichment ratio is at most 0.25.
On to VKCA, for which the enrichment ratio was at most 0.25.
FGCG: the enrichment ratio was at most 0.25.
With WGKF, the enrichment ratio is at most 0.25.
In the case of GWML it was at most 0.25; in that of FYYV, at most 0.25.
The same measure for KIAC: at most 0.25; for TVEC: 2.
The same measure for RQQS: at most 0.25.
On to SMGA, for which the enrichment ratio is at most 0.25.
In the case of NFDY it was at most 0.25.
In the case of FEKH it was at most 0.25; in that of KPIW, at most 0.25; in that of KVVW, at most 0.25.
Consider IILT, for which the enrichment ratio was at most 0.25.
For LIFR, the enrichment ratio is at most 0.25.
The same measure for LGMT: at most 0.25; for ESQG: at most 0.25.
In the case of FIAN it was at most 0.25; in that of RCND, at most 0.25; in that of YWKF, at most 0.25.
Consider VGSA, for which the enrichment ratio was at most 0.25.
In the case of LTSI it was at most 0.25; in that of PPGK, at most 0.25; in that of WRVT, at most 0.25.
In the case of KTGA, the enrichment ratio was at most 0.25.
In the case of RQNL it was at most 0.25.
On to DHWQ, for which the enrichment ratio was at most 0.25.
In the case of HNDS, the enrichment ratio was at most 0.25.
HGYF: the enrichment ratio is at most 0.25.
AVWM: the enrichment ratio was at most 0.25.
The same measure for SYQH: at most 0.25.

For the origin of these results see a collection of fitness landscapes (doi:10.1126/science.1257360).
